{"source": "patent US20260184778A1", "about": "(REGENECORE BIOTECH, published 2026)", "binders": {"B1": {"name": "anti-IL-4Rα/IL-5 bispecific antibody 4E9V10-2B3V2-1 (bispecific antibody, human IgG4)", "chain": "QVQLVESGGGLVQPGGSLRLSCAASGDFYCMAWFRQAPGKEREAVAAIRSGGRSTYYADSVKGRFTISRDNSKNTLYLQMNSLKAEDTAVYYCAVGVDGNCRNYWGQGTLVTVSS[skipping human IgG4 Fc]ESKYGPPCPSCPQVQLVESGGGSVQAGGSLRLSCAASGNTFSFSTYCMGWFRQSPGKEREGSLATIYDASTAYAGSVKGRFTISRDNSKNILYLQMNNLRAEDTAVYYCAAARYCMFWSHPSYWGQGTQVTVSS"}}, "key": {"[1]": {"target": "IL-4Rα (human, UniProt P24394 26-232, limits assumed)", "test": "cell-based or functional assay"}, "[2]": {"target": "IL-5 (human, UniProt P05113 20-134)", "sequence (P05113 20-134 limits assumed)": "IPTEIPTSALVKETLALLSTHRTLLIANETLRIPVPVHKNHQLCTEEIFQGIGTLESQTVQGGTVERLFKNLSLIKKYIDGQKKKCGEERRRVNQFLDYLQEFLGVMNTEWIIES", "test": "cell-based or functional assay"}}}
{"binder": "B1", "values": [{"measurement": "EC50(nM), neutralizing IL-13-induced TF-1 proliferation", "setting": "[1]", "value": 0.215, "unit": "nM"}, {"measurement": "EC50 (nM), neutralizing IL-5-induced TF-1 cell proliferation", "setting": "[2]", "value": 0.175, "unit": "nM"}]}
